# From the supplement of paper PMC8728848
# Some of the results follow.
# Legend:
# Test in all cases: glycan array binding signal (z-score within array); higher = stronger binding
# Conditions in all cases: glycan notation: IUPAC condensed, linker removed
# [1] = target: Fuc(a1-2)Gal(b1-4)GlcNAc(b1-3)Gal(b1-4)GlcNAc(b1-2)Man(a1-3)[Fuc(a1-2)Gal(b1-4)GlcNAc(b1-3)Gal(b1-4)GlcNAc(b1-2)Man(a1-6)]Man(b1-4)GlcNAc(b1-4)GlcNAc
# Procedure, shortened: (§1)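 The binding signal is a Z-score computed within each array and averaged over linkers. Arrays of the same protein sequence at different concentrations or buffers were also averaged together. Data originate from 3228 arrays in the Consortium for Functional Glycomics database, kept only where the protein sequence was available.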
# [2] = target: Fuc(a1-2)Gal(b1-4)GlcNAc(b1-3)Gal(b1-4)GlcNAc(b1-3)Gal(b1-4)GlcNAc
# Procedure, shortened: as §1
# [3] = target: Fuc(a1-2)Gal(b1-4)GlcNAc(b1-3)GalNAc
# Procedure, shortened: as §1
# [4] = target: Fuc(a1-2)Gal(b1-4)GlcNAc(b1-3)[Fuc(a1-2)Gal(b1-4)GlcNAc(b1-6)]GalNAc
# Procedure, shortened: as §1
# [5] = target: Fuc(a1-2)Gal(b1-4)GlcNAc(b1-3)[Fuc(a1-3)[Gal(b1-4)]GlcNAc(b1-6)]Gal(b1-4)Glc
# Procedure, shortened: as §1
# [6] = target: Fuc(a1-2)Gal(b1-4)GlcNAc(b1-6)GalNAc
# Procedure, shortened: as §1
# [7] = target: Fuc(a1-2)Gal(b1-4)GlcNAc6S
# Procedure, shortened: as §1
# [8] = target: Fuc(a1-2)Gal(b1-4)[Fuc(a1-3)]GlcNAc
# Procedure, shortened: as §1
# [9] = target: Fuc(a1-2)Gal(b1-4)[Fuc(a1-3)]GlcNAc(b1-2)Man(a1-3)[Fuc(a1-2)Gal(b1-4)[Fuc(a1-3)]GlcNAc(b1-2)Man(a1-6)]Man(b1-4)GlcNAc(b1-4)[Fuc(a1-6)]GlcNAc
# Procedure, shortened: as §1
# [10] = target: Fuc(a1-2)Gal(b1-4)[Fuc(a1-3)]GlcNAc(b1-2)[Fuc(a1-2)Gal(b1-4)[Fuc(a1-3)]GlcNAc(b1-4)]Man(a1-3)[Fuc(a1-2)Gal(b1-4)[Fuc(a1-3)]GlcNAc(b1-2)Man(a1-6)]Man(b1-4)GlcNAc(b1-4)GlcNAc
# Procedure, shortened: as §1
# [11] = target: Fuc(a1-2)Gal(b1-4)[Fuc(a1-3)]GlcNAc(b1-3)Gal(b1-4)[Fuc(a1-3)]GlcNAc
# Procedure, shortened: as §1
# [12] = target: Fuc(a1-2)Gal(b1-4)[Fuc(a1-3)]GlcNAc(b1-3)Gal(b1-4)[Fuc(a1-3)]GlcNAc(b1-3)Gal(b1-4)[Fuc(a1-3)]GlcNAc
# Procedure, shortened: as §1
# [13] = target: Fuc(a1-2)Gal(b1-4)[Fuc(a1-3)]GlcNAc(b1-3)GalNAc
# Procedure, shortened: as §1
# [14] = target: Fuc(a1-2)Gal(b1-4)[Fuc(a1-3)]GlcNAc(b1-3)[Neu5Ac(a2-6)Gal(b1-4)GlcNAc(b1-6)]Gal(b1-4)Glc
# Procedure, shortened: as §1
# [15] = target: Fuc(a1-2)Gal3S(b1-4)GlcNAc
# Procedure, shortened: as §1
# [16] = target: Fuc(a1-2)Gal6S(b1-3)GlcNAc
# Procedure, shortened: as §1
# [17] = target: Fuc(a1-2)Gal6S(b1-3)GlcNAc6S
# Procedure, shortened: as §1
# Fuc(a1-2)Gal6S(b1-4)Glc = target: Fuc(a1-2)Gal6S(b1-4)Glc
# Procedure, shortened: as §1
# [18] = target: Fuc(a1-2)Gal6S(b1-4)Glc6S
# Procedure, shortened: as §1
# Fuc(a1-2)GlcNAc = target: Fuc(a1-2)GlcNAc
# Procedure, shortened: as §1
# Fuc(a1-2)[Gal(a1-3)]Gal = target: Fuc(a1-2)[Gal(a1-3)]Gal
# Procedure, shortened: as §1
# [19] = target: Fuc(a1-2)[Gal(a1-3)]Gal(b1-3)GalNAc
# Procedure, shortened: as §1
# [20] = target: Fuc(a1-2)[Gal(a1-3)]Gal(b1-3)GalNAc(b1-3)Gal(a1-4)Gal(b1-4)Glc
# Procedure, shortened: as §1
# [21] = target: Fuc(a1-2)[Gal(a1-3)]Gal(b1-3)GlcNAc
# Procedure, shortened: as §1
# [22] = target: Fuc(a1-2)[Gal(a1-3)]Gal(b1-3)GlcNAc(b1-2)Man(a1-3)[Fuc(a1-2)[Gal(a1-3)]Gal(b1-3)GlcNAc(b1-2)Man(a1-6)]Man(b1-4)GlcNAc(b1-4)GlcNAc
# Procedure, shortened: as §1
# [23] = target: Fuc(a1-2)[Gal(a1-3)]Gal(b1-3)GlcNAc(b1-2)Man(a1-3)[Fuc(a1-2)[Gal(a1-3)]Gal(b1-3)GlcNAc(b1-2)Man(a1-6)]Man(b1-4)GlcNAc(b1-4)[Fuc(a1-6)]GlcNAc
# Procedure, shortened: as §1
# [24] = target: Fuc(a1-2)[Gal(a1-3)]Gal(b1-3)GlcNAc(b1-3)GalNAc
# Procedure, shortened: as §1
# [25] = target: Fuc(a1-2)[Gal(a1-3)]Gal(b1-3)GlcNAc(b1-6)GalNAc
# Procedure, shortened: as §1
# [26] = target: Fuc(a1-2)[Gal(a1-3)]Gal(b1-4)Glc
# Procedure, shortened: as §1
# [27] = target: Fuc(a1-2)[Gal(a1-3)]Gal(b1-4)GlcNAc
# Procedure, shortened: as §1
binder,measurement,setting,value
"CSA (Cytisus scoparius), P29257 (protein) SEELSFSFTKFKTDQKNLILQRDALITPTGKLQLTTVENGKPAAYSLGRALYSTPIHIWDKSTGDEASFATFFSFVISDAPNPSTAATDGLAFFLAPADTQPQSAGGYLGLFEKDSSYNSSNQIVAVEFDTYYNSAWDPQTNPHIGIDVNTIKSKKVSSWGFKNGNVATVLITYQPSSKSLVASLVYPSGQTSDKTSYIISANVDLKATVPEWVRIGFSATTGQTDNYIETHDILSWSFKSKLPATKN",glycan array binding signal (z-score),[1],0.571
same,glycan array binding signal (z-score),[2],0.266
same,glycan array binding signal (z-score),[3],-0.179
same,glycan array binding signal (z-score),[4],-0.094
same,glycan array binding signal (z-score),[5],-0.159
same,glycan array binding signal (z-score),[6],0.18
same,glycan array binding signal (z-score),[7],-0.135
same,glycan array binding signal (z-score),[8],-0.189
same,glycan array binding signal (z-score),[9],-0.134
same,glycan array binding signal (z-score),[10],-0.125
same,glycan array binding signal (z-score),[11],-0.183
same,glycan array binding signal (z-score),[12],-0.175
same,glycan array binding signal (z-score),[13],-0.115
same,glycan array binding signal (z-score),[14],-0.208
same,glycan array binding signal (z-score),[15],-0.158
same,glycan array binding signal (z-score),[16],-0.239
same,glycan array binding signal (z-score),[17],-0.196
same,glycan array binding signal (z-score),Fuc(a1-2)Gal6S(b1-4)Glc,-0.125
same,glycan array binding signal (z-score),[18],-0.197
same,glycan array binding signal (z-score),Fuc(a1-2)GlcNAc,-0.179
same,glycan array binding signal (z-score),Fuc(a1-2)[Gal(a1-3)]Gal,-0.18
same,glycan array binding signal (z-score),[19],-0.234
same,glycan array binding signal (z-score),[20],-0.199
same,glycan array binding signal (z-score),[21],-0.176
same,glycan array binding signal (z-score),[22],-0.153
same,glycan array binding signal (z-score),[23],-0.143
same,glycan array binding signal (z-score),[24],-0.159
same,glycan array binding signal (z-score),[25],-0.13
same,glycan array binding signal (z-score),[26],-0.176
same,glycan array binding signal (z-score),[27],-0.197
